Here are results for 3 compounds from PubChem BioAssay AID2060504 (Molecular Pharmacology Branch, DTP, NCI, 2025).

In the test the test system is 636577-100-R-J1-PDC complex spheroid viability. The test is described as follows: Anticancer human tumor 636577-100-R-J1-PDC patient-derived endometrial adenocarcinoma cell line growth inhibition [GQUAD]. The following applies: for viability, T/C: stronger effect = lower value. The text has this: DNA G-quadruplex Stabilizer Agents in Combinations in Complex Spheroids
A high-throughput screen of multi-cell type tumor spheroids was designed to identify active combinations of DNA G-quadruplex stabilizer agents and targeted small molecules. Complex spheroids include a stromal component modeled by human endothelial cells (HUVEC) and fibroblasts modeled by human mesenchymal stem cells (MSCs). The concentration ranges selected for each drug and investigational agent were based upon clinically achievable concentrations if the clinical Cmax of the agent was known.
Compounds. The drugs and investigational agents: pidnarulex (CX-5461; NSC782164), APTO-253 (NSC789042), BRACO-19 (NSC847499), peposertib (NSC802822), ceralasertib (NSC780249), elimusertib (NSC800525), camonsertib (NSC841442), AZD-1390 (NSC803789), olaparib (NSC753686), talazoparib (NSC767125), ART-558 (NSC835418), sotorasib (NSC818433), MRTX-1133 (NSC836407), SN-38 (NSC673596), topotecan (NSC609699), etoposide (NSC141540), doxorubicin (NSC123127), gemcitabine (NSC613327), 5-fluorouracil (NSC19893), paclitaxel (NSC125973), vemurafenib (NSC761431), panobinostat (NSC761190), R-306465 (JNJ-16241199; NSC773264), adavosertib (NSC754352), TP-3654 (NSC805149), carboplatin (NSC241240), KSQ-4279 (NSC840948), and staurosporine (NSC755774) were obtained from the National Cancer Institute (NCI) Developmental Therapeutics Program Chemical Repository (34). The FDA-approved anticancer drug set is available from the NCI Developmental Therapeutics Program. […] The stock solutions were prepared in dimethyl sulfoxide (DMSO, Sigma-Aldrich, St. Louis, MO, cat. D2650) at 800-fold the tested concentration and stored at -70 degrees C prior to their use. All drugs and investigational agents were tested over a range starting from a high concentration at or near the clinical Cmax and decreasing in half-log increments. If the clinical Cmax for an agent had not been determined, the highest concentration tested was 10 microM.
2.3 Cell Culture. All cells were maintained in an incubator at 37 degrees C and 5% CO2 with 95% humidity. The PDC lines were cultured according to standard operating procedures established by the NCI PDMR. All PDCs were thawed and cultured in Matrigel-coated flasks prepared with a working solution of 1X Ham's F-12 nutrient mix, without supplementation (Invitrogen, cat. 11765054), 100 U/mL penicillin-streptomycin (Invitrogen, cat. 15140122), and 2.5% Matrigel (Corning Inc., cat. 354248) for the first three passages. The 857933-349-R-J2-PDC line was cultured in 6C/Colon 1B media, which includes advanced DMEM/F-12 (Thermo Fisher Scientific, cat. 12634028), 10 mM HEPES (Thermo Fisher Scientific, cat. 15630080), 1X GlutaMAX supplement (Thermo Fisher Scientific, cat. 35050061), 0.1 mg/mL primocin (InvivoGen, cat. ant-pm-2), 10% defined fetal bovine serum, heat inactivated (HyClone Laboratories Inc., cat. SH30070.03HI), 50% L-WRN conditioned media (ATCC, cat. CRL-3276), 1.25 mM N-Acetyl-L-cysteine (Sigma-Aldrich, cat. A9165), 10 mM nicotinamide (Sigma-Aldrich, cat. N0636), 1X B-27 supplement (Thermo Fisher Scientific, cat. 17504044), 1X N-2 supplement (Thermo Fisher Scientific, cat. 17502048), 10 microM Y-27632 dihydrochloride (Tocris Bioscience, cat. 1254), and 50 ng/mL human EGF recombinant protein (Thermo Fisher Scientific, cat. PHG0311). The 485176-168-R4-J1-PDC line was cultured in Panc media, which includes all 6C/Colon 1B media components plus 100 ng/mL human FGF-10 (Thermo Fisher Scientific, cat. 100-26), 500 nM SB-431542 (Selleckchem, cat. S1067), and gastrin (Tocris, cat. 3006).
[…]

For part of its entries the source gives two or more results. The other results are left out here. There may be further records. The values listed for one entry repeat one measurement in other runs, samples, wells, individuals or studies. Marks such as (2×) give the number of equal values in this list.

One may read the viability, T/C as the result in the treated group divided by that in the control group, in per cent. One may read the IC50 as the concentration needed to halve the response being measured.
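Further: viability read after seven days of drug exposure.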
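Wherever viability, T/C is given: luminescence signal used as a proxy for viable cells.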

`CN(C)c1ccc(Nc2c3ccc(NC(=O)CCN4CCCC4)cc3nc3cc(NC(=O)CCN4CCCC4)ccc23)cc1`: the viability, T/C runs as follows: (compound alone 0.1 µM) 113, 93.2, 84.5, 87.3, 97.7, 103 (2×), 99.2, 101, 97.6, 90.5, 96.9%; (compound alone 0.316 µM) 88.2, 80.3, 92.3, 97.1, 92.1, 90.9, 106, 89.7, 101, 89.5, 100, 88.8%.

Regarding `Cc1[nH]c2ccc(F)cc2c1-c1nc2c3cccnc3c3ncccc3c2[nH]1`, the viability, T/C is 62.4, 88.1, 97.6, 79.7, 96.3, 111, 106, 91.5, 93.2% (compound alone 0.0316 µM); 72.7, 92.6, 85.7, 78.2, 98, 119, 104, 103, 96.1% (compound alone 0.1 µM); 52.3, 69.2, 91.6, 107 (2×), 91.5, 116, 105, 97.6% (compound alone 0.316 µM); 58.6, 59.5, 50.7, 55.5, 48.7, 40, 30.4, 35.6, 38% (compound alone 10 µM).

Take `Cc1cnc(CNC(=O)c2c(=O)c3ccc(N4CCCN(C)CC4)nc3n3c2sc2ccccc23)cn1`: the IC50 (compound alone, run of 03/18/2024) is < 31.6 nM, 35 nM, 44.4 nM, 32.4 nM, 35.7 nM, 34.8 nM.
